Out of some 52,000 compounds screened, about 1,700 (3.3%) were called active. No stated cut-off is given here; in the data, active means survival mostly below about 52% (no sharp cut-off); inactive means mostly above about 56%. The list shows a part of the results.
Test system: Wild type
Assay: growth inhibition of S. aureus wild type versus tarO mutant, primary screen, teichoic acid synthesis inhibitors, RN4220, OD600 (AID 463173)
Details: S. aureus RN4220 wild type/DeltatarO growth, OD600, 18 h, active compounds read low, screened at 18.75 µg/mL (by protocol)

Row | SMILES | survival
1 | CCCCNC(=O)CSc1nc2cc3c(cc2c(=O)n1CCCC(=O)NCc1ccc(OC)cc1)OCO3 | inactive: 55%
2 | CC(C)CC(=O)NC1CC(=O)N(c2ccc3c(c2)OCCO3)C1 (configuration not stated) | inactive: 113%
3 | Cc1ccc2c(c1)N(C(=O)N1CCC(C(=O)Nc3cccc(F)c3)CC1)CCO2 | inactive: 70%
4 | O=S(=O)(NCCc1csc2nc(-c3ccc(Cl)cc3)nn12)c1cccs1 | inactive: 72%
5 | COC(=O)c1ccccc1NC(=O)NCc1ccc2c(c1)CCN2C(=O)c1ccccc1 | inactive: 73%
6 | O=C1CN(C(=O)c2ccc(S(=O)(=O)N3CCCC3)cc2)C(c2ccc(F)cc2)c2cc(Br)ccc2N1 (configuration not stated) | inactive: 152%
7 | COc1cccc(C(=O)NC2CCCC2)c1 | inactive: 103%
8 | CCC1CN(S(=O)(=O)c2cc(-c3cc(C)no3)ccc2OC)c2cc(Cl)ccc2O1 (configuration not stated) | inactive: 83%
9 | COc1ccccc1Nc1cc(C(=O)NCCCN(C)C2CCCCC2)c2ccccc2n1 | inactive: 108%
10 | COc1cc(Nc2nc3c(S(=O)(=O)c4ccccc4)nnn3c3ccc(Cl)cc23)cc(OC)c1 | inactive: 83%
11 | O=c1c2oc3ccccc3c2n(Cc2ccccc2Cl)c(=O)n1Cc1ccc2c(c1)OCO2 | inactive: 94%
12 | CCc1ccccc1NC(=O)CN(c1cc(C(F)(F)F)ccc1Cl)S(=O)(=O)c1ccccc1 | inactive: 68%
13 | CCOC(=O)c1ccc2c(c1)N(Cc1cc(C)ccc1C)C(=O)c1ccccc1S2(=O)=O | inactive: 80%
14 | Cc1cc(C)cc(NC(=O)[C@H]2O[C@@H]3OC(C)(C)O[C@@H]3[C@H]3OC(C)(C)O[C@H]32)c1 | inactive: 102%
15 | Cc1ccc2c(c1)N(C(=O)CCC(=O)NCc1ccccc1F)CC(C)O2 (configuration not stated) | inactive: 115%
16 | O=C(COc1ccc(Cl)cc1)OCc1cc(=O)n2nc(C3CCCCC3)sc2n1 | inactive: 92%
17 | Cc1cc(C)c2nc(N3CCCN(C(=O)c4ccco4)CC3)c(C#N)cc2c1 | inactive: 123%
18 | Cc1ccccc1C(=O)N1CCC(c2nc(-c3ccc(S(=O)(=O)N4CCCC4)cc3)no2)CC1 | inactive: 108%
19 | CCc1ccc(NC(=O)C2CCN(c3ncccn3)CC2)cc1 | inactive: 100%

Row | SMILES | survival
20 | CC(C)C(=O)c1cn(CC(=O)NCc2cccs2)c2ccccc12 | inactive: 109%
21 | Clc1cccc(Nc2ncnc3c2nc2n3CCCCC2)c1 | active: -1%
22 | O=C(Nc1ccccc1Cl)N1CCc2ccccc2C1 | inactive: 87%
23 | Cc1ccsc1CN(Cc1ccco1)c1cnc(S(C)(=O)=O)nc1C(=O)Nc1ccc(Cl)cc1 | inactive: 82%
24 | Cn1c(=O)oc2cc(S(=O)(=O)CCC(=O)NCc3ccc(Cl)cc3)ccc21 | inactive: 74%
25 | CCCC(O)=NS(=O)(=O)c1ccc(N=NN(C)C)cc1 | inactive: 121%
26 | CC1CCN(C(=O)CN2CC(C)Sc3ccccc32)CC1 (configuration not stated) | inactive: 71%
27 | CCOCCn1ccc2c(OCC(=O)Nc3cc(C)cc(C)c3)cccc2c1=O | inactive: 88%
28 | COc1ccc(-c2cn3nc(SCC(=O)Nc4cccc(C)c4C)ccc3n2)cc1 | inactive: 99%
29 | COc1ccc(Nc2nc3ccccc3n3c(N)nnc23)cc1 | inactive: 76%
30 | Cc1cccc(C(=O)Nc2ccc(OCc3cc(=O)n4ccc(C)cc4n3)cc2)c1 | inactive: 55%
31 | Cc1ccc(NS(=O)(=O)c2ccc(-n3cccn3)cc2)c(Br)c1 | inactive: 75%
32 | COc1cc2c(cc1OC)C(COc1cc(C)cc(C)c1)N(C(=O)C(C)(C)C)CC2 (configuration not stated) | inactive: 70%
33 | CCC(Nc1ccc(-c2nc(-c3ccccn3)no2)cc1[N+](=O)[O-])c1ccccc1 (configuration not stated) | inactive: 70%
34 | CC1(C)C(=O)NC(=O)N1CN1C(=O)NC(=O)C1(C)C | inactive: 111%
35 | O=C(NCc1ccco1)c1ccc(S(=O)(=O)NCC2CCCCC2)cc1 | inactive: 105%
36 | CCCCN(C)C(=O)CCC(=O)NNc1nc2ccccc2c2nc(C)nn12 | inactive: 78%
37 | Cc1ccc(C(c2sc3nc(-c4ccco4)nn3c2O)N2CCN(c3ccc(F)cc3)CC2)cc1 (configuration not stated) | inactive: 110%
38 | Cc1oc(-c2cccc(Cl)c2)nc1Cn1c(SCc2ccc(F)cc2)nc2cccnc21 | inactive: 77%

Row | SMILES | survival
39 | Cc1cccc(N2CCn3c2nc2c3c(=O)n(CCCc3ccccc3)c(=O)n2C)c1 | inactive: 90%
40 | COc1cc2c(C(=O)N(C)c3cccc(C(F)(F)F)c3)cn(CC(C)C)c(=O)c2cc1OC | inactive: 141%
41 | COc1cc(CN(C(=O)COc2ccccc2)c2ccccn2)cc(OC)c1OC | inactive: 84%
42 | Cc1ccc(C2CC(=O)Nc3c2c(C)nn3-c2nc(C)cc(C)n2)c(C)c1 (configuration not stated) | inactive: 118%
43 | O=C(CCCCCn1c(=O)c2sccc2n(CC(=O)Nc2ccccc2F)c1=O)NCc1ccc2c(c1)OCO2 | inactive: 100%
44 | CCC(C)OC(=O)/C(C#N)=C/c1ccc(-c2ccc(Br)cc2)o1 (configuration not stated) | inactive: 54%
45 | Cc1cc2n(n1)CCCN2C(=O)Nc1ccccc1C(F)(F)F | inactive: 88%
46 | CCc1ccc(S(=O)(=O)c2nnn3c2nc(N(CC)Cc2ccccc2)c2cc(Cl)ccc23)cc1 | inactive: 92%
47 | COC(=O)c1cc(-c2ccccc2)sc1N | inactive: 116%
48 | COC(=O)CN1C(=O)CSc2ccc(S(=O)(=O)Nc3ccc(C)c(Cl)c3)cc21 | inactive: 79%
49 | O=C(Cc1ccc(-c2ccccc2)cc1)NCCS(=O)(=O)N1CCN(c2ccccc2F)CC1 | inactive: 80%
50 | CCc1nnc(NC(=O)C2CCCO2)s1 (configuration not stated) | inactive: 90%
51 | COc1cccc(NC(=O)C2CCCN(c3ncnc4onc(C)c34)C2)c1 (configuration not stated) | inactive: 72%
52 | O=C(Nc1ccccc1C(=O)N1CCCCC1)c1nsc2ccccc12 | inactive: 159%
53 | COc1ccc(NC(=O)CNC(=O)Cn2ccc3ccccc3c2=O)cc1OC | inactive: 91%
54 | CCc1ccc(NC(=O)c2cc(=O)c3ccc(C)c(C)c3o2)cc1 | inactive: 99%
55 | CCCCCOc1ccc(/C=C/C(=O)Nc2sc3c(c2C(=O)OCC)CCC3)cc1OC | inactive: 70%
56 | CNC(=O)c1cnc2sc(N3CCC(C)CC3)nn2c1=O | inactive: 71%
57 | CCCCOc1cccc(C2c3c(-c4cc(C)ccc4O)n[nH]c3C(=O)N2CCOC)c1 (configuration not stated) | inactive: 25%

Reference: PubChem BioAssay AID463173 (ICCB-Longwood Screening Facility, Harvard Medical School, 2010)
